The record followed here is ChEMBL document CHEMBL4888484, “Replenishing the malaria drug discovery pipeline: Screening and hit evaluation of the MMV Hit Generation Library 1 (HGL1) against asexual blood stage Plasmodium falciparum ,using a nano luciferase reporter read-out” (2022).

Molecules are shown by their SMILES. The whole screen tested about 150,000 compounds, of which about 540 (0.36%) showed an effect of 50% or more. Some of the results follow.

This assay relates to Plasmodium falciparum. Briefly: Primary screen in NF54 nanoGlo assay, in single point, at 2uM, 72h; a lower Z score goes with more inhibition. The format is functional, Erythrocyte. The conditions noted are these: timepoint 72 hour.
Regarding `Nc1nc2c(c(-c3cccnc3)n1)CN(C(=O)C1CCCC1)C2`, the “% Inhibition” value is reported as -26% and the Z score is on record as 2.82.
Consider `Cc1nn2c(c1C#N)NC(=O)[C@@H]2CC(=O)Nc1ccccc1Cl`, for which the “% Inhibition” value is on record as -6% and the Z score came to 0.76.
The like results for `CCCc1noc(Cn2cnc3snc(C)c3c2=O)n1` were, in that order, -15% and 1.91.
Consider `Cc1cc(CN2CCC3(CC2)C[C@@H]3c2nc(-c3cccnc3)no2)on1`, for which the “% Inhibition” value is reported as -6% and the Z score came to 0.93.
The like results for `O=C(C[C@@H]1C[C@H]2O[C@H](CNCc3ccccc3Cl)[C@@H](O)[C@H]2O1)N1CCOCC1` were, in that order, 10% and -1.15.
The like results for `O=C1CCC2(CCN(C(=O)c3cc(Cl)ccc3O)CC2)N1` were, in that order, -2% and 0.31.
In the case of `CC(NCC1(C(O)C(C)C)CC1)c1ccc(=O)[nH]n1` (centres undefined), the “% Inhibition” value was -14% and the Z score was found to be 1.88.
Consider `COCCN(Cc1cc2ccc(Cl)cc2nc1N(C)C)C(=O)CCc1ccc(C)cc1`, for which the “% Inhibition” value is on record as -4% and the Z score came out at 0.75.
For `CCN(C(=O)[C@H]1CCN(C)[C@@H](C)C1)C1CCCC1` the same measures were 31% and -0.9.
Turning to `CNS(=O)(=O)c1ccccc1Br`, the “% Inhibition” value is given as 15% and the Z score is listed as -1.7.
The like results for `CN1CCCC[C@@H](C(=O)Nc2ncccc2CO)C1=O` were, in that order, -8% and 1.26.
For `Cc1c[nH]c(CN(C)c2cc([C@H]3CCOC3)nc(NCCO)n2)n1` the same measures were -1% and 0.19.
For `CC1CCC(N(C[C@H]2CCCO2)C(=O)Cn2cnnn2)CC1` (some centres undefined) the same measures were -11% and 1.1.
As for `C=CCn1cc(CN2CCC3(CC2)CN(CCN2CCN(CC)CC2)C(=O)O3)cn1`, the “% Inhibition” value amounted to 3% and the Z score is on record as -0.54.
The like results for `Cc1cccc(CC2(NC(=O)C[C@H]3CC3(F)F)CC2)c1` were, in that order, 0% and 0.03.
The like results for `CCOc1ccc(C(=O)N2CCN(S(=O)(=O)c3ccc4c(c3)NC(=O)CO4)CC2)cc1OCC` were, in that order, 4% and -0.37.
For `C=C[C@H]1OCC[C@@H]1CNC(=O)N1CC(F)C1` the same measures were -1% and 0.22.
Turning to `O=C(CCC1CCN(C(=O)c2cnco2)CC1)Nc1ccccc1Cl`, the “% Inhibition” value was -7% and the Z score turned out to be 0.92.
The like results for `CC(C)(C(=O)NC[C@@]12CCC[C@@H]1OCC2)c1ccc2c(c1)OCO2` were, in that order, -7% and 0.94.
For `O=C(CCn1cc([C@H]2CCOC2)nn1)Nc1nccs1` the same measures were -14% and 2.35.
Consider `Cc1cc(O)cc(O)c1C(=O)Cc1ccc2cccnc2c1`, for which the “% Inhibition” value is -8% and the Z score amounted to 1.02.
As to `Cc1ccc2[nH]c(CN(C)C(=O)NCC3(Cn4nc(C)cc4C)CC3)nc2c1`, the “% Inhibition” value is listed as -4% and the Z score is 0.8.
For `COc1ccc(C)cc1N1CCN(C(=O)c2cccs2)[C@@H](C)C1=O` the same measures were -3% and 0.62.
The like results for `O=C(CCc1ccc(C(=O)O)cc1)NC1CCC(C(F)(F)F)CC1` (centres undefined) were, in that order, -9% and 1.69.
For `N#Cc1cccc(N2Cc3cnn(CCO)c3C2)n1` the same measures were -3% and 0.56.
For `Cc1c(C(=O)NCc2cccc(F)c2)cnn1-c1nccc(-c2ccco2)n1`, the “% Inhibition” value is reported as -16% and the Z score came out at 2.1.
For `O=C1N[C@@H]2CCN(S(=O)(=O)c3cccc(F)c3)[C@@H]2C(=O)N1c1ccc(F)cc1` the same measures were 28% and -3.14.
The like results for `Brc1ccc(C2(NCc3ccccn3)CC2)cc1` were, in that order, -16% and 2.24.
Take `COc1ccccc1CC(=O)N1CC[S@+]([O-])C(C)(C)C1`: the “% Inhibition” value is listed as -11% and the Z score came to 0.96.
For `CC(C)(C)c1noc([C@@H]2COc3ccc(O)cc3O2)n1` the same measures were -7% and 1.32.
The like results for `O=C(NCc1ccc(Br)cc1)[C@H]1CCCN(c2ccnc(-c3cccc(F)c3)n2)C1` were, in that order, -4% and 0.44.
`Cn1cnnc1[C@@H]1CCCN1Cc1c(F)cccc1OC(F)(F)F`: the “% Inhibition” value was determined as 3% and the Z score is listed as -0.38.
The like results for `Cc1cc(C)n(C)c(=O)c1C(=O)N(C)Cc1cc2cc(F)ccc2[nH]1` were, in that order, 17% and -2.26.
Turning to `Cc1ccc(NCc2ncnn2C)c(F)c1`, the “% Inhibition” value is recorded as -2% and the Z score is 0.28.
For `O=C(C[C@@H]1COC2(C1)CN(C(=O)CCc1nc3ccccc3s1)C2)N1CCOCC1` the same measures were -5% and 0.78.
The like results for `CCc1cc(NC(=O)Cc2cccs2)nn1-c1ccc(OC)cc1` were, in that order, 5% and -0.59.
On to `Nc1ncnc(N2CCc3c(F)cc(F)cc3C2)c1Cl`, for which the “% Inhibition” value is reported as -7% and the Z score is reported as 0.77.
For `CN(C)S(=O)(=O)c1ccc2c(c1)nnn2CCNC(=O)Nc1ccc(Br)cc1` the same measures were -4% and 0.56.
For `NC(=O)N1CCCN(C(=O)[C@@H](F)CC2CCCCC2)CC1` the same measures were -5% and 0.55.
The like results for `Cc1nn(C)cc1C(C)NC(=O)C(C)CCOc1ccccc1` (centres undefined) were, in that order, -2% and 0.31.
Turning to `COc1ccc2cc3c(nc2c1)N(C(=O)c1ccc(S(=O)(=O)N2CCCC2)cc1)CC3`, the “% Inhibition” value is recorded as -3% and the Z score is 0.32.
For `FC(F)(F)C1(C(F)(F)F)CCN(CCc2ccccn2)C1` the same measures were -2% and 0.27.
